# Results reported in the supplement of paper PMC8728848.
# The other results are listed elsewhere or left out.
# B1: Cohesin-hMARCO (Homo sapiens) (protein)
# chain: LDDLDAVRIKVDTVNAKPGDTVRIPVRFSGIPSKGIANCDFVYSYDPNVLEIIEIEPGDIIVDPNPDKSFDTAVYPDRKIIVFLFAEDSGTGAYAITKDGVFATIVAKVKEGAPNGLSVIKFVEVGGFANNDLVEQKTQFFDGGANVGDTTEPATPTTPVTTPTTTDDLDAASVRIVGSSNRGRAEVYYSGTWGTICDDEWQNSDAIVFCRMLGYSKGRALYKVGAGTGQIWLDNVQCRGTESTLWSCTKNSWGHHDCSHEEDAGVECSVHHHHHH
# Tests used:
# Assay in all cases: glycan array binding signal (z-score within array); higher = stronger binding
# Settings in all cases: glycan notation: IUPAC condensed, linker removed
# [1] = target: Gal(a1-3)Gal(b1-3)GlcNAc
# Outline: (§1)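 Negative Z-scores can be read as non-binding. The Z-score is calculated within each array and then averaged across arrays of one protein sequence at different concentrations or buffers and across linkers. Arrays, 3228 in all, were curated from the Consortium for Functional Glycomics database and kept only where the protein sequence was available.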
# [2] = target: Gal(a1-3)Gal(b1-3)GlcNAc(b1-2)Man
# Outline: as §1
# [3] = target: Gal(a1-3)Gal(b1-3)GlcNAc(b1-2)Man(a1-3)[Gal(a1-3)Gal(b1-3)GlcNAc(b1-2)Man(a1-6)]Man(b1-4)GlcNAc(b1-4)GlcNAc
# Outline: as §1
# [4] = target: Gal(a1-3)Gal(b1-3)GlcNAc(b1-3)GalNAc
# Outline: as §1
# [5] = target: Gal(a1-3)Gal(b1-3)GlcNAc(b1-6)GalNAc
# Outline: as §1
# [6] = target: Gal(a1-3)Gal(b1-3)[Fuc(a1-4)]GlcNAc(b1-2)Man(a1-3)[Gal(a1-3)Gal(b1-3)[Fuc(a1-4)]GlcNAc(b1-2)Man(a1-6)]Man(b1-4)GlcNAc(b1-4)GlcNAc
# Outline: as §1
# [7] = target: Gal(a1-3)Gal(b1-4)Glc
# Outline: as §1
# [8] = target: Gal(a1-3)Gal(b1-4)GlcNAc
# Outline: as §1
# [9] = target: Gal(a1-3)Gal(b1-4)GlcNAc(b1-2)Man
# Outline: as §1
# [10] = target: Gal(a1-3)Gal(b1-4)GlcNAc(b1-2)Man(a1-3)[Gal(a1-3)Gal(b1-4)GlcNAc(b1-2)Man(a1-6)]Man(b1-4)GlcNAc(b1-4)GlcNAc
# Outline: as §1
# [11] = target: Gal(a1-3)Gal(b1-4)GlcNAc(b1-3)GalNAc
# Outline: as §1
# [12] = target: Gal(a1-3)Gal(b1-4)GlcNAc(b1-6)GalNAc
# Outline: as §1
# [13] = target: Gal(a1-3)Gal(b1-4)[Fuc(a1-3)]GlcNAc
# Outline: as §1
# [14] = target: Gal(a1-3)Gal(b1-4)[Fuc(a1-3)]GlcNAc(b1-2)Man(a1-3)[Gal(a1-3)Gal(b1-4)[Fuc(a1-3)]GlcNAc(b1-2)Man(a1-6)]Man(b1-4)GlcNAc(b1-4)GlcNAc
# Outline: as §1
# [15] = target: Gal(a1-3)GalNAc
# Outline: as §1
# [16] = target: Gal(a1-3)[Gal(a1-4)]Gal(b1-4)GlcNAc
# Outline: as §1
# [17] = target: Gal(a1-4)Gal(b1-3)GlcNAc(b1-2)Man(a1-3)[Gal(a1-4)Gal(b1-3)GlcNAc(b1-2)Man(a1-6)]Man(b1-4)GlcNAc(b1-4)GlcNAc
# Outline: as §1
# [18] = target: Gal(a1-4)Gal(b1-4)Glc
# Outline: as §1
# [19] = target: Gal(a1-4)Gal(b1-4)GlcNAc
# Outline: as §1
# [20] = target: Gal(a1-4)Gal(b1-4)GlcNAc(b1-2)Man(a1-3)[Gal(a1-4)Gal(b1-4)GlcNAc(b1-2)Man(a1-6)]Man(b1-4)GlcNAc(b1-4)GlcNAc
# Outline: as §1
# [21] = target: Gal(a1-4)Gal(b1-4)GlcNAc(b1-3)Gal(b1-4)Glc
# Outline: as §1
# [22] = target: Gal(a1-4)GlcNAc
# Outline: as §1
# [23] = target: Gal(a1-6)Glc
# Outline: as §1
# [24] = target: Gal(b1-2)Gal
# Outline: as §1
# [25] = target: Gal(b1-3)Gal
# Outline: as §1
# [26] = target: Gal(b1-3)Gal(b1-4)GlcNAc
# Outline: as §1
# [27] = target: Gal(b1-3)GalNAc
# Outline: as §1
# [28] = target: Gal(b1-3)GalNAc(a1-3)[Fuc(a1-2)]Gal(b1-4)Glc
# Outline: as §1
# [29] = target: Gal(b1-3)GalNAc(a1-3)[Fuc(a1-2)]Gal(b1-4)GlcNAc
# Outline: as §1
# [30] = target: Gal(b1-3)GalNAc(b1-3)Gal
# Outline: as §1
# [31] = target: Gal(b1-3)GalNAc(b1-3)Gal(a1-4)Gal(b1-4)Glc
# Outline: as §1
# [32] = target: Gal(b1-3)GalNAc(b1-4)Gal(b1-4)Glc
# Outline: as §1
# [33] = target: Gal(b1-3)GalNAc(b1-4)[Neu5Ac(a2-3)]Gal(b1-4)Glc
# Outline: as §1
# [34] = target: Gal(b1-3)GlcNAc
# Outline: as §1
# [35] = target: Gal(b1-3)GlcNAc(a1-3)Gal(b1-4)GlcNAc
# Outline: as §1
# [36] = target: Gal(b1-3)GlcNAc(a1-6)Gal(b1-4)GlcNAc
# Outline: as §1
# [37] = target: Gal(b1-3)GlcNAc(b1-2)Man
# Outline: as §1
# [38] = target: Gal(b1-3)GlcNAc(b1-2)Man(a1-3)[Gal(b1-3)GlcNAc(b1-2)Man(a1-6)]Man(b1-4)GlcNAc(b1-4)GlcNAc
# Outline: as §1
binder,measurement,setting,value
B1,glycan array binding signal (z-score),[1],11.2
same,glycan array binding signal (z-score),[2],-0.227
same,glycan array binding signal (z-score),[3],-0.173
same,glycan array binding signal (z-score),[4],-0.174
same,glycan array binding signal (z-score),[5],2.88
same,glycan array binding signal (z-score),[6],-0.129
same,glycan array binding signal (z-score),[7],-0.222
same,glycan array binding signal (z-score),[8],0.036
same,glycan array binding signal (z-score),[9],0.685
same,glycan array binding signal (z-score),[10],0.043
same,glycan array binding signal (z-score),[11],-0.296
same,glycan array binding signal (z-score),[12],1.84
same,glycan array binding signal (z-score),[13],0.768
same,glycan array binding signal (z-score),[14],0.211
same,glycan array binding signal (z-score),[15],-0.479
same,glycan array binding signal (z-score),[16],-0.402
same,glycan array binding signal (z-score),[17],-0.136
same,glycan array binding signal (z-score),[18],-0.421
same,glycan array binding signal (z-score),[19],-0.328
same,glycan array binding signal (z-score),[20],-0.425
same,glycan array binding signal (z-score),[21],-0.338
same,glycan array binding signal (z-score),[22],-0.083
same,glycan array binding signal (z-score),[23],-0.325
same,glycan array binding signal (z-score),[24],2.18
same,glycan array binding signal (z-score),[25],-0.397
same,glycan array binding signal (z-score),[26],-0.262
same,glycan array binding signal (z-score),[27],0.061
same,glycan array binding signal (z-score),[28],-0.355
same,glycan array binding signal (z-score),[29],-0.331
same,glycan array binding signal (z-score),[30],-0.503
same,glycan array binding signal (z-score),[31],-0.312
same,glycan array binding signal (z-score),[32],-0.42
same,glycan array binding signal (z-score),[33],-0.42
same,glycan array binding signal (z-score),[34],-0.318
same,glycan array binding signal (z-score),[35],-0.433
same,glycan array binding signal (z-score),[36],-0.309
same,glycan array binding signal (z-score),[37],-0.288
same,glycan array binding signal (z-score),[38],-0.103
